# Measurements taken from the supplement of paper PMC10126150.
# Sequences with one replicate were seen in a single cluster, so their values are uncertain.
# System: ATP
# Experiment: switch fluorescence ratio, 500 uM ATP over buffer (Cy3 cluster intensity, sum of 5 cycles each) (fold (ratio)); higher = stronger signal-on switching upon ATP binding; sequences stand for … in TCGTCGGCAGCGTCAGATGTGTATAAGAGACAGTTTTTTTTTTTTTTTTTTTTTTTTT…TC
# Conditions: aptamer strand: ATP DNA aptamer (quencher-CACCTGGGGGAGTATTGCGGAGGAAGG + anchor), 100 nM annealed; ATP concentration: 500 uM; one replicate
# How it was run: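 Five buffer/ATP imaging cycles were run on Cy3-labelled switching-strand clusters on a modified Illumina MiSeq flow-cell, with NaOH stripping and re-annealing between cycles. In each cycle, clusters annealed to 100 nM quencher-labelled ATP aptamer were imaged in selection buffer, then after 15 min with 500 uM ATP at 22 °C. Per cluster, the fluorescence ratio is summed target-cycle over summed buffer-cycle Cy3 intensity, averaged per switch-domain sequence. Only clusters within 100-1000 RFU were kept.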
# 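Note: ATP exposure 15 min at 22 °C before imaging.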
row,Sequence,switch fluorescence ratio
1,GAGGATTAAG,1.03
2,GAGGCAACGG,1
3,GAGGCAATG,2.89
4,GAGGCATCTA,0.995
5,GAGGCCATAT,1.19
6,GAGGCCCGTG,1
7,GAGGCCGTC,1.03
8,GAGGCCTAAA,0.987
9,GAGGCGCTAC,1.02
10,GAGGCTACTA,1.11
11,GAGGCTATTA,1.04
12,GAGGCTCAAC,0.976
13,GAGGGAACAC,1
14,GAGGGAACAT,0.974
15,GAGGGACAGT,1.06
16,GAGGGCACCT,1.08
17,GAGGGCGGGC,0.963
18,GAGGGTCCAT,0.994
19,GAGGTAAAAG,0.989
20,GAGGTAACCT,1.18
21,GAGGTATCTC,0.998
22,GAGGTATTCT,1.02
23,GAGGTCAGT,0.985
24,GAGGTGCGTT,1
25,GAGGTTAAGG,0.962
26,GAGGTTAGTG,0.937

row,Sequence,switch fluorescence ratio
1,GAGGTTTGAT,0.976
2,GAGTAAAACC,1.06
3,GAGTAAGACC,1.05
4,GAGTAAGGCG,0.945
5,GAGTAATCTA,0.993
6,GAGTAGATTT,0.973
7,GAGTAGCCTA,0.968
8,GAGTATAAAC,1.01
9,GAGTCAACAA,1.04
10,GAGTCAACTT,0.958
11,GAGTCACCAC,1.09
12,GAGTCAGGTG,2.3
13,GAGTCCGCGG,1.62
14,GAGTCCGGTT,1.05
15,GAGTCCGTGC,1.41
16,GAGTCTATTC,1.03
17,GAGTCTCAGA,1.02
18,GAGTCTTAGA,0.998
19,GAGTGAACAT,1.01
20,GAGTGACGTG,1.03
21,GAGTGAGGCG,0.971
22,GAGTGCACGG,1.03
23,GAGTGCTTCG,1.04
24,GAGTGGCCAA,0.879
25,GAGTGGCCCT,0.99
26,GAGTGGCCTC,0.956

row,Sequence,switch fluorescence ratio
1,GAGTGTGAT,0.965
2,GAGTTACGTC,0.972
3,GAGTTAGGCT,0.996
4,GAGTTAGTCT,0.913
5,GAGTTCAATC,0.978
6,GAGTTGCAAC,1.05
7,GAGTTGGAAA,0.999
8,GAGTTGGTTG,1.01
9,GAGTTTAGTG,0.981
10,GAGTTTGCAA,1.27
11,GAGTTTGCAT,1.01
12,GAGTTTTT,0.928
13,GATAAAGCGT,1.01
14,GATAAAGGGG,1.01
15,GATAAATGG,1.01
16,GATAAATGT,1.02
17,GATAACATCG,1.03
18,GATAACCCTT,0.989
19,GATAAGAGTT,0.962
20,GATAAGTTTT,0.992
21,GATAATCCAT,0.966
22,GATAATGAGA,0.991
23,GATAATTCAG,1
24,GATACACGAG,1.03
25,GATACAGGTT,0.994
26,GATACCGCGA,4.76

row,Sequence,switch fluorescence ratio
1,GATACCTATC,1.01
2,GATACGAGGG,1.05
3,GATACGCTTG,1.03
4,GATAGAATCA,0.974
5,GATAGACCGT,1.01
6,GATAGACGAT,0.992
7,GATAGATTGC,0.954
8,GATAGCAGTC,1.28
9,GATAGCGGGT,1.01
10,GATAGCTACG,1.02
11,GATAGCTTCA,1.07
12,GATAGGGTGT,1.05
13,GATAGGTAGT,1.03
14,GATAGGTTT,1.01
15,GATAGTACGC,1.03
16,GATAGTCCCG,1.04
17,GATAGTGTTC,1.02
18,GATAGTTGTG,0.959
19,GATATAACAG,0.986
20,GATATCTGCG,0.969
21,GATATGACGG,0.984
22,GATATGAGA,1.03
23,GATATTGCC,0.953
